Reference: the supplement of paper PMC3334620
In all, about 33,000 sequences were measured (“E-score (-0.5 to 0.5)”: median about -0.041, highest 2% from about 0.37 on). This is one part of the list.

target: T1, Ecm22 (UniProt Q05958); assay: PBM E-score (8-mer binding enrichment) (E-score (-0.5 to 0.5)); higher = stronger / more preferred TF binding; most listed sequences are background and not binding sites; details: protein concentration: 200 nM; construct: GST-full length
T1 sequence: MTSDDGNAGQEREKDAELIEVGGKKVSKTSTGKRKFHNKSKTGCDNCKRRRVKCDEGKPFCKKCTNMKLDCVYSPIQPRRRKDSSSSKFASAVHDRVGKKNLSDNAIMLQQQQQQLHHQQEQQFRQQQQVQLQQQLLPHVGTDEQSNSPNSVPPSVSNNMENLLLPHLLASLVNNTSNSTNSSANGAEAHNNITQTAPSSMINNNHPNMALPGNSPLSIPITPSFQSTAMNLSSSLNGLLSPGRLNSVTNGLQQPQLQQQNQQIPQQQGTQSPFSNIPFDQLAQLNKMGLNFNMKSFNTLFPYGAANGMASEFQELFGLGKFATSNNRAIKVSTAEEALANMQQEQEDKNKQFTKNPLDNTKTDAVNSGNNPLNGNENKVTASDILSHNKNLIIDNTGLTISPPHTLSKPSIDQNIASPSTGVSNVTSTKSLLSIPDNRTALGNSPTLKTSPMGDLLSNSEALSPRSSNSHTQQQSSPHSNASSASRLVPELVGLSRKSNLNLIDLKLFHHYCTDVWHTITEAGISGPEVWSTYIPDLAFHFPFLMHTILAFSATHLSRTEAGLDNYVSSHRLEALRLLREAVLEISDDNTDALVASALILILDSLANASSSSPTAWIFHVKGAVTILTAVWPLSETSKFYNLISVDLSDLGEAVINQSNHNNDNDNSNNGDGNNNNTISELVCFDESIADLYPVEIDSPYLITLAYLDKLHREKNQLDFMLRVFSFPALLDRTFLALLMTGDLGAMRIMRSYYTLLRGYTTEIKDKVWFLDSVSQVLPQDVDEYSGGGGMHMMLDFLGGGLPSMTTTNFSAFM
How it was run: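 GST-tagged yeast TFs (full-length or DNA-binding domain) were made by PURExpress in vitro transcription/translation and applied at about 100-200 nM to universal all-10-mer Agilent arrays. The arrays were made double-stranded by primer extension, on fresh or once-stripped slides. Bound protein was detected with fluorescent anti-GST, and scans were normalised with masliner. Each ungapped eight-base word, pooled with its reverse complement, received an E-score (modified Wilcoxon-Mann-Whitney statistic) from the Universal PBM Analysis Suite.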

Sequence | PBM E-score
CAAATCCG | -0.0204
CAATGGTC | -0.129
TCAGTGCA | -0.0784
AAAGGTTC | -0.00446
AAGGGAAG | -0.131
AGAATACG | 0.293
CACAACAG | -0.256
CTTGGTCC | -0.103
GAACACAC | -0.123
AACCGGGA | 0.043
CAGCAGGA | -0.248
ATACGCTG | 0.205
TCCTATCA | -0.0891
ATTCTATA | -0.00057
CATGGGCG | -0.184
GGACGAGA | 0.0358
CTAAGGTC | -0.196
CTACAAGC | -0.0162
GGTAGCGA | 0.157
ACAAAATG | -0.0181
CGAGACCA | 0.21
CGTCACAA | 0.0778
ATCATGTA | 0.0364
GATACCGC | 0.031
ATTCGTAA | 0.405

Sequence | PBM E-score
CAGTTAGA | -0.187
GCCTGAGA | -0.0939
AAGAACTC | -0.0316
GCAAGCAC | -0.248
TATACACA | 0.198
ATGTCATG | -0.0467
ATGACACA | -0.0421
AATTGATA | 0.0989
CTTCCTCA | -0.132
ATGATCGC | 0.0439
CCCCTCTC | -0.188
AGCGGGAA | 0.182
CCTTAACC | -0.173
AATTGACG | 0.0203
CGGATACA | 0.162
CATGGCCA | -0.311
ACGATTAC | 0.277
GATTAGGC | -0.0365
CCAGAGCA | -0.105
AGATCCTG | -0.103
CAGTACCA | -0.017
CAGTGGAA | -0.284
GTTACGCA | 0.0933
CCGCATCA | -0.195
AAAAGTCG | 0.0905

Sequence | PBM E-score
ACGGAATC | -0.0009
GATTCTAC | 0.0474
GTGATTAA | -0.0515
TCGAGAGA | 0.0743
GCACGACA | 0.114
GCAGCCAC | -0.0453
CCCGGTTA | 0.00957
ACCCTGTG | -0.08
ATACTCCA | -0.0114
CGAACTCA | 0.0727
AAACCAGT | -0.00755
CGGCCGCA | -0.0854
CAATCTCA | -0.0458
AACTCCAT | -0.298
AAACGCGT | 0.227
GCGGTTCC | 0.0954
GATGTCGA | 0.0298
CTAAGCCC | -0.327
AGTTTGCG | -0.0229
AATATTTC | 0.0902
TAGGAGCA | -0.249
AAGAATGG | -0.0869
CTGCCCTA | -0.296
CGATCGTA | 0.437
AACTGGCG | 0.0384

Sequence | PBM E-score
AAGGTAAT | -0.00177
CTACCTAG | -0.286
CGAGGGAC | 0.125
CTATGAGC | -0.162
CATAGTAG | 0.195
AAGTCCCC | -0.134
GAGGGTGA | -0.089
AACCCGGG | -0.1
AAGTACGG | 0.281
TAGCTAGA | -0.0745
GAACAACC | 0.0822
CACGACTC | 0.0577
AATGCCGC | 0.109
CGGCACCG | 0.106
ATTGTAAG | -0.0704
CAATGCTC | -0.00915
CAAACTTG | -0.0918
GCAGTCGC | 0.0968
ATAGGGGA | -0.227
GGCCGTGA | -0.165
ATGAGGCA | -0.147
GACGTTGC | 0.168
ATATCATA | 0.243
ATATGCGC | 0.0551
AGGTACCC | -0.249

Sequence | PBM E-score
CATCCAAC | -0.0746
CTTATAGC | 0.0718
CACCACCG | -0.112
AGACTGCC | 0.0643
ACTAAGCT | -0.00994
AGAAGCGG | -0.165
AGCCAGTC | -0.0789
CCGTGGGC | -0.0945
AGTTTGAG | -0.116
AGTATGAA | 0.0349
CAGAGGGC | -0.268
ACTACAGG | -0.0997
CTACCAGC | -0.0908
ATGACGAA | 0.098
ACTCGGAC | 0.126
AGGCAGCC | -0.176
AAAACGGG | 0.278
AATTGGGG | -0.0806
GAAGCTCA | -0.182
CGCCTCCC | 0.0189
AGAATGAA | 0.0485
AGACGGTA | -0.121
TCGGCTAA | 0.184
TAGTTGGA | -0.0836
GCTCAGAC | -0.112

Sequence | PBM E-score
AACCCGTT | 0.201
CACCCAGC | -0.154
ACTCGAGT | 0.12
ACAACGGT | 0.0964
ACACGGTA | 0.108
TAGCTGCA | -0.146
ATATGGGC | -0.113
AAACGATG | 0.439
CCACCGAC | -0.182
AAAGAGAT | -0.0862
TACAGATA | 0.0642
AATCCTGC | -0.191
ACGCGCAC | 0.0967
GAAGAGCA | -0.289
CCACGCAA | -0.0714
CAAGAGCA | -0.302
ATCCACCA | -0.18
CTTGCTTA | -0.208
ATATGCCA | 0.04
AACCCGGT | -0.0666
TACACCGA | 0.0435
GAAAAGGC | -0.027
GTGCCTGA | -0.193
AACACATA | 0.0837
TCAACAAA | 0.0901

Sequence | PBM E-score
CGAAAAAG | 0.229
ACGCCCGA | -0.0498
ACTTCCCA | -0.0598
CCTGTAAG | -0.191
GCATCAAC | 0.0415
AAAATTTA | 0.0902
GTGGAAGA | -0.134
CGACCGGA | 0.235
ACCGGCGG | -0.0922
CCTTTAAG | -0.259
TATTGAGA | 0.0234
ACAGAGAA | -0.114
CGGCCGAC | 0.0395
CTAGGTGC | -0.0893
GTAAGTCA | 0.189
ACTGGCGG | -0.0132
ACCGAGTG | 0.159
TACATCCA | 0.0211
CGCGGTAC | 0.319
TCATAAGA | 0.0597
CCTGGGCC | -0.232
AGGCTGCG | -0.132
